# According to EP4793292A1, “POLYPEPTIDE DERIVATIVE, PHARMACEUTICAL COMPOSITION THEREOF AND USE THEREOF” (Biocells (Beijing) Biotech Co., Ltd., priority 2023, dated 2025):
# Part of at least one peptide drawing is inferred or uncertain, most often the ends.
# Tests used:
# [1] = Body weight of rats after spinal cord injury (SCI) surgery; assay type: in vivo; settings: female SD rats, FIG. 2
# Method: (§1) Female SD rats (250-270 g) were randomly grouped after being weighed. After the dorsal T10 segment lamina of the rats was removed, spinal cord contusion was performed on rats in each spinal cord injury (SCI) surgery group, while for rats in the sham operation (sham) group, only the T10 segment lamina was removed without contusion. Rats with a BBB locomotor score > 1 on day 1 after spinal cord injury surgery were excluded, and the remaining rats were randomly grouped and subcutaneously injected daily with: equal volume of physiological saline (vehicle control), PW5 (1 mg/kg), and PW337 (1, 2, 4 mg/kg); rats in the sham operation group were not injected. The body weight of the rats was measured weekly after spinal cord injury surgery, and BBB scoring and open field activity tests were performed.
# [2] = system: rats with chronic spinal cord injury; assay: BBB locomotor scoring in rats with chronic spinal cord injury; assay type: in vivo; settings: 2 mg/kg subcutaneous daily, FIG. 4
# Method: as §1, with “(2” for “(1”, “(2” for “(1, 2, 4”, “BBB scoring” for “The body weight of the rats”, “performed” for “measured”, “surgery.” for “surgery, and BBB scoring and open field activity tests were performed.”
smiles,measurement,setting,value
CC[C@H](C)[C@H](NC(=O)[C@H](CO)NC(=O)[C@H](CCC(=O)O)NC(=O)[C@H](Cc1ccc(O)cc1)NC(=O)[C@H](CCC(=O)O)NC(=O)[C@H](CCC(N)=O)NC(=O)[C@H](CO)NC(=O)[C@H](CC(C)C)NC(=O)[C@H](CCCCNC(=O)COCCOCCNC(=O)COCCOCCNC(=O)CC[C@H](NC(=O)CCCCCCCCCCCCCCCCC(=O)O)C(=O)O)NC(=O)[C@H](CC(C)C)NC(=O)[C@H](CO)NC(=O)[C@H](CC(=O)O)NC(=O)[C@H](CC(N)=O)NC(=O)[C@H](C)NC(=O)[C@H](CCCCN)NC(=O)[C@H](CC(C)C)NC(=O)[C@H](CCCNC(=N)N)NC(=O)[C@H](CCC(=O)O)NC(=O)[C@H](CCSC)NC(=O)[C@H](Cc1c[nH]cn1)NC(=O)[C@H](CCC(=O)O)NC(=O)[C@H](C)NC(=O)[C@H](CCSC)NC(=O)[C@H](CC(=O)O)NC(=O)[C@H](CCCNC(=N)N)NC(=O)[C@H](CCCNC(=N)N)NC(=O)[C@H](CCCNC(=N)N)NC(=O)[C@H](CCC(N)=O)NC(=O)[C@H](CCCNC(=N)N)NC(=O)[C@H](CCCNC(=N)N)NC(=O)[C@H](CCCCN)NC(=O)[C@H](CCCCN)NC(=O)[C@H](CCCNC(=N)N)NC(=O)CN)C(N)=O [PW-337],body weight recovery compared with rats in the spinal cord injury (SCI) group,[1]; 1 mg/kg subcutaneous daily,significantly accelerated on days 27-57 after surgery
same,body weight recovery compared with rats in the spinal cord injury (SCI) group,[1]; 2 mg/kg subcutaneous daily,significantly accelerated on days 6-57 after surgery
same,body weight recovery compared with rats in the spinal cord injury (SCI) group,[1]; 4 mg/kg subcutaneous daily,significantly accelerated on days 6-42 after surgery
same,"increase in BBB score, day 56 compared with day 14",[2]; compared with PW5 group,significantly higher than that in the PW5 group
same,BBB score compared with SCI group,[2]; day 56 after surgery (chronic phase),significantly higher than that in the SCI group
same,"BBB scores, differences among SCI, PW5 and PW337 groups",[2]; days 1-14 after surgery (acute and subacute phase),no significant differences
